Source: the BET-seq Pho4 binding data (Le et al. 2018)
The list shows a part of the results. These are noisy estimates, calculated here from bound and input reads.

Each sequence was assayed against T1, Pho4 (S. cerevisiae) (UniProt P07270) (assay: relative binding free energy (BET-seq); higher = weaker binding). Details: reference: library average.
T1 sequence: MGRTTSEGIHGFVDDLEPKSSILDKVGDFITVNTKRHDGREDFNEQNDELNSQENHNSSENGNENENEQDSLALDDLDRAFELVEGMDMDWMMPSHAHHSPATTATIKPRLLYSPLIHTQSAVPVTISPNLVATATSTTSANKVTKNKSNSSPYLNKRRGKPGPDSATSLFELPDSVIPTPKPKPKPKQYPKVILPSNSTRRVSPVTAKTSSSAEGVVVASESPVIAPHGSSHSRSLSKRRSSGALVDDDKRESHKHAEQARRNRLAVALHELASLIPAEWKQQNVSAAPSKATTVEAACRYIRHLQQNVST

Sequence	relative binding free energy [kcal/mol]
CAAGTCACGTGATTTT	0.31
CTTTTCACGTGTTGAT	0.12
TTGTTCACGTGGCTGG	0.2
TTATTCACGTGTCCGT	0.23
AAATACACGTGGGGTC	0
CGTTTCACGTGTGGCT	0.2
GTCTTCACGTGTGCTT	0.31
TGAGGCACGTGTTGAC	-0.07
GATTTCACGTGGTCTG	0.24
GTTGACACGTGTAAGA	0.09
TATTTCACGTGCTGGA	0.22
GTGGACACGTGGGTCA	-0.21
GTCGGCACGTGGAGGT	-0.08
GCGTTCACGTGAGTTG	0.49
TACATCACGTGTGGTA	0
AGAATCACGTGGAGTA	0.19
ATAATCACGTGTGTAT	0.12
CGTGTCACGTGTATGA	0.05
GTGTGCACGTGCTGGT	-0.09
GTGGACACGTGAAAGG	0.24
TTAATCACGTGTATTT	0.17
AAGGTCACGTGTATTA	0.09
GTAGGCACGTGTGTTG	-0.07

Sequence	relative binding free energy [kcal/mol]
TGGAGCACGTGGGAGC	-0.18
GGGCTCACGTGTTGGG	0.22
ATTTTCACGTGTATGC	0.15
TTTATCACGTGATGGT	0.31
TGTATCACGTGTCTGA	0.11
AGGATCACGTGTCTTA	0.19
TTAGGCACGTGAGGCC	0.07
GGTCACACGTGCTGGG	-0.01
TGGGTCACGTGCGGGT	0.01
GCTGACACGTGTGGCG	0.14
TAAGACACGTGTGAGG	0.16
GTGTTCACGTGAGACG	0.26
TTTAGCACGTGTGCGC	-0.17
TCTGTCACGTGTTGGC	0.23
GGGTTCACGTGCGTTG	0.29
GGTGCCACGTGGATGT	-0.11
TGAGGCACGTGGAGCA	-0.19
AATCTCACGTGTGGGG	0.28
TGTCACACGTGTAGAG	0.24
TGGAACACGTGTGTTG	-0.03
TACATCACGTGTAGTG	0.16
CATTTCACGTGGAGTG	0.37
TACTGCACGTGGGAGT	-0.14

Sequence	relative binding free energy [kcal/mol]
AGAGCCACGTGGTGGT	-0.21
TGCGGCACGTGGGGAT	-0.05
ATTTGCACGTGGGATC	0.06
TTTATCACGTGTCCGG	0.16
TGGGTCACGTGTTCGG	0.12
AGGATCACGTGAGATG	0.41
TGTACCACGTGCGGTG	-0.11
GGGGCCACGTGTGTTC	-0.02
GAGTGCACGTGGTCGG	-0.1
GTTCGCACGTGGGGAA	-0.13
TGTGGCACGTGCGTGA	-0.15
ATGGGCACGTGGTGTA	-0.15
TTAGTCACGTGGGGTA	-0.11
TAGCGCACGTGGATGT	-0.13
CGTTTCACGTGCGTTG	0.12
TCAGTCACGTGTTTTC	0.22
TGCGTCACGTGGGGTG	-0.05
AGTAGCACGTGGGGGG	-0.22
TTCCTCACGTGTTGTG	0.04
TTTATCACGTGGTATC	0.11
AGTTTCACGTGAGTAA	0.46
CATGTCACGTGTGTTC	0.21
ACGTGCACGTGCAGTT	0.15

Sequence	relative binding free energy [kcal/mol]
GTGTCCACGTGTTGGA	0.14
CAGGGCACGTGATGGA	0.1
GCAGGCACGTGGAGTT	-0.17
TTGAGCACGTGTGATC	0.03
TGGGCCACGTGAGTTG	0.06
GATCGCACGTGGCGGG	-0.17
TTAATCACGTGGATCG	0.24
TGGTGCACGTGCGGGA	0.03
TTGTCCACGTGTGTAT	-0.08
CTTAACACGTGGAGTT	0.11
TTGAGCACGTGTATGG	-0.14
AGGGACACGTGGAGTT	0.11
AGGAGCACGTGGTTCG	-0.07
CGAGTCACGTGGTTAG	0
AGCAGCACGTGGGGGA	-0.39
AGAATCACGTGTGTTA	0.21
ATTGTCACGTGCAGTT	0.01
AGGAGCACGTGCTGGT	-0.12
TGGGACACGTGGGGGG	-0.04
GCTAGCACGTGTTGAT	0.02
CGAGGCACGTGTTTTG	-0.09
CGATGCACGTGGTGTG	-0.13
TAAAGCACGTGGGCGT	-0.15

Sequence	relative binding free energy [kcal/mol]
CATGGCACGTGGTGCT	-0.28
TGGGACACGTGGTCTG	-0.19
ATGCACACGTGGTGTG	-0.07
AATTGCACGTGGGAAA	0.02
TTAGGCACGTGGGGCA	-0.31
GTAAGCACGTGATATT	0.18
GGGTTCACGTGTATTG	0.28
TTTATCACGTGTTGCT	0.17
TTTGACACGTGATCGT	0.03
GCTCGCACGTGGGTTG	-0.14
AATCACACGTGGGTTT	0.02
AATGGCACGTGGCGGA	-0.26
AGCATCACGTGTTTGA	0.14
GGTGTCACGTGTGTCT	0.23
GGGAGCACGTGGCGAT	-0.01
TGTTCCACGTGTAGTG	0.06
CATTGCACGTGTAATG	0.15
TTCTCCACGTGGGGGG	-0.15
TGGTACACGTGCTGGG	0.03
TTTATCACGTGAAATT	0.24
ACTTGCACGTGGAGGG	-0.07
TAGGCCACGTGAAAGG	0.22
GTGTTCACGTGAGGAC	0.53
